Biological target: T1, native human alpha-1-antitrypsin (purified AAT from human plasma) (human, UniProt P01009, glycosylated)
T1 construct: mature; also called native AAT
Assay: band shift assay: AAT sample with 100 ng PPE, 37 C, 15 min; covalent-linked complex seen by SDS-PAGE and Western blot

B1: porcine pancreatic elastase (enzyme, UniProt P00772 27-266, looked up)
chain: VVGGTEAQRNSWPSQISLQYRSGSSWAHTCGGTLIRQNWVMTAAHCVDRELTFRVVVGEHNLNQNDGTEQYVGVQKIVVHPYWNTDDVAAGYDIALLRLAQSVTLNSYVQLGVLPRAGTILANNSPCYITGWGLTRTNGQLAQTLQQAYLPTVDYAICSSSSYWGSTVKNSMVCAGGDGVRSGCQGDSGGPLHCLVNGQYAVHGVTSFVSRLGCNVTRKPTVFTRVSAYISWINNVIASN
notes: also called PPE
B1: binds.

Reference: patent EP2294930A2 (Ventria Bioscience, dated 2011)
